# Results taken from the supplement of paper PMC9135407.
# Where “and” joins values, the source holds several entries; their conditions need not be identical. Equal values may be shown once. Where a name gives a salt, the structure may show the parent alone. The campaign covered roughly 5,800 compounds. About 620 (11%) showed activity.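 The calls were made as follows: active = score above a cut-off or among the top three wells of a plate; in these data no inactive exceeds 0.85.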 The entries are a selection whose mix differs from that of the whole data set.
# Test system: primary human hepatic stellate cells (donor 1)
# Test: scaled lipid accumulation score (0 = DMSO-like, 1 = nortriptyline-like); higher = stronger HSC inactivation (lipid re-accumulation), active = hit call of the paper
# Conditions: 48 h
# [1] = library stock concentration: 1 mM
# [2] = library stock concentration: 10 mM
# [3] = library stock concentration: 3.33 mM
# [4] = library stock concentration: 3.1 mM
smiles,measurement,setting,value
COC(=O)[C@@H](N)CCCNC(=N)N[N+](=O)[O-] [L-NAME (hydrochloride)],scaled lipid accumulation score,[1],inactive: ≤ 0
COC(=O)[C@@H](N)CCCNC(=N)N[N+](=O)[O-] [L-NAME hydrochloride],scaled lipid accumulation score,[2],inactive: ≤ 0
COC(=O)[C@@H](N)CCCNC(=N)N[N+](=O)[O-] [NG-Nitro-L-arginine methyl ester hydrochloride],scaled lipid accumulation score,[2],inactive: 0.047
COC(=O)[C@@H](N)CCCNC(=N)N[N+](=O)[O-],scaled lipid accumulation score,library stock concentration: 21.4 mM,inactive: ≤ -0.012
O=C(NCC1CCOCC1)c1cnc(Nc2ccc(Cl)cc2Cl)nc1C(F)(F)F,scaled lipid accumulation score,[3],inactive: ≤ 0
same,scaled lipid accumulation score,[2],inactive: ≤ 0
CN1CCc2cccc(Cl)c2CC1,scaled lipid accumulation score,[2],inactive: ≤ 0
COc1c2c(cc3c1OCO3)CCN(C)C2 [Hydrocotarnine hydrobromide],scaled lipid accumulation score,,inactive: ≤ 0
CC(N)Cc1cnc[nH]1 (stereo unspecified),scaled lipid accumulation score,[2],inactive: 0.028
O=C1Nc2ccccc2C2(CCN(CCc3ccc(C(F)(F)F)cc3)CC2)O1,scaled lipid accumulation score,[2],inactive: 0.552
NC(CCCCCP(=O)(O)O)C(=O)O (stereo unspecified) [(?)-2-Amino-7-phosphonoheptanoic acid],scaled lipid accumulation score,[2],inactive: ≤ 0
NCC(O)c1ccc(O)cc1 (stereo unspecified) [Octopamine hydrochloride],scaled lipid accumulation score,[2],inactive: ≤ 0 and inactive: 0.024
NCC(O)c1ccc(O)cc1 (stereo unspecified) [(?)-Octopamine hydrochloride],scaled lipid accumulation score,[2],inactive: ≤ -0.02
CN1CCCCC1Cn1cc(C(=O)c2cc([N+](=O)[O-])ccc2I)c2ccccc21 (stereo unspecified),scaled lipid accumulation score,[1],inactive: ≤ 0
same,scaled lipid accumulation score,[3],inactive: 0.078
same,scaled lipid accumulation score,[2],inactive: 0.822
O=c1ccc2cc(O[C@@H]3O[C@H](CO)[C@@H](O)[C@H](O)[C@H]3O)c(O)cc2o1 [Esculin Hydrate],scaled lipid accumulation score,,inactive: ≤ 0
O=c1ccc2cc(O[C@@H]3O[C@H](CO)[C@@H](O)[C@H](O)[C@H]3O)c(O)cc2o1 [Esculin],scaled lipid accumulation score,[3],inactive: ≤ 0
same,scaled lipid accumulation score,[2],inactive: 0.028
O=c1ccc2cc(O[C@@H]3O[C@H](CO)[C@@H](O)[C@H](O)[C@H]3O)c(O)cc2o1 [Aesculin],scaled lipid accumulation score,[2],inactive: ≤ 0
O=[N+]([O-])/C=C/c1ccc2c(c1)OCO2,scaled lipid accumulation score,[2],active: 0.967
CC(C)NC(C)Cc1ccc(I)cc1 (stereo unspecified) [Iofetamine hydrochloride],scaled lipid accumulation score,[2],inactive: 0.757
Cc1ccc(/N=C/N(C)/C=N/c2ccc(C)cc2C)c(C)c1 [Amitraz],scaled lipid accumulation score,library stock concentration: 6.8 mM,inactive: ≤ 0
same,scaled lipid accumulation score,[2],inactive: ≤ -0.027
CCCN(CCC)C1Cc2cc(OC)c(OC)cc2C1,scaled lipid accumulation score,[2],inactive: ≤ 0 and inactive: ≤ -0.006
c1ccc2c(c1)Nc1ccccc1S2,scaled lipid accumulation score,[2],inactive: ≤ 0
c1ccc2c(c1)Nc1ccccc1S2 [Phenothiazine],scaled lipid accumulation score,[3],inactive: ≤ 0
same,scaled lipid accumulation score,[2],inactive: 0.074
C[C@]12CC[C@H]3[C@@H](CCC4=CC(=O)CC[C@@]43C)[C@@H]1CC[C@@H]2O [Testosterone],scaled lipid accumulation score,library stock concentration: 6.9 mM,inactive: 0.032
same,scaled lipid accumulation score,[2],inactive: 0.108 and inactive: 0.479
N=C(NCCC[C@H](N)C(=O)O)N[N+](=O)[O-] [N (g)-nitro-l-arginine],scaled lipid accumulation score,[2],inactive: ≤ 0
N=C(NCCC[C@H](N)C(=O)O)N[N+](=O)[O-] [NG-Nitro-L-arginine],scaled lipid accumulation score,[2],inactive: ≤ -0.055
"c1ccc(CC(c2ccccc2)N2CCCCC2)cc1 (stereo unspecified) [(?)-1-(1,2-Diphenylethyl)piperidine maleate]",scaled lipid accumulation score,[2],inactive: 0.27
C[C@]12CCC(=O)C(O)=C1CC[C@@H]1[C@@H]2CC[C@]2(C)C(=O)CC[C@@H]12 [Formestane],scaled lipid accumulation score,[3],inactive: 0.067
same,scaled lipid accumulation score,library stock concentration: 6.6 mM,inactive: 0.087
same,scaled lipid accumulation score,[2],inactive: ≤ 0 and inactive: 0.044
CCOP(=S)(OCC)Oc1cc(C)nc(C(C)C)n1,scaled lipid accumulation score,[2],inactive: ≤ 0
CNC(C)(C)Cc1ccccc1 [Mephentermine sulfate],scaled lipid accumulation score,library stock concentration: 7.7 mM,inactive: 0.033
same,scaled lipid accumulation score,[2],inactive: 0.077
CNC(C)(C)Cc1ccccc1 [Mephentermine hemisulfate],scaled lipid accumulation score,,inactive: ≤ 0
CNC(Cc1c[nH]c2ccccc12)C(=O)O (stereo unspecified) [Abrine (l)],scaled lipid accumulation score,[2],inactive: ≤ 0
c1ccc(C2CC2)c(OCC2=NCCN2)c1 [Cirazoline HCl],scaled lipid accumulation score,library stock concentration: 9.2 mM,inactive: 0.017
c1ccc(C2CC2)c(OCC2=NCCN2)c1 [Cirazoline],scaled lipid accumulation score,library stock concentration: 23.1 mM,inactive: 0.536
c1ccc(C2CC2)c(OCC2=NCCN2)c1 [Cirazoline hydrochloride],scaled lipid accumulation score,[2],inactive: 0.226 and inactive: 0.199
NCC(CP(=O)(O)O)c1ccc(Cl)cc1 (stereo unspecified) [Phaclofen],scaled lipid accumulation score,[2],inactive: 0.048
O=C(Cc1ccc(Cl)c(Cl)c1)N1CCCCC1CN1CCCC1 (stereo unspecified),scaled lipid accumulation score,[2],inactive: 0.581 and inactive: 0.566
CCC1=C[C@H]2CN3CCc4c([nH]c5ccccc45)[C@](C(=O)OC)(C2)[C@H]13 [Catharanthine],scaled lipid accumulation score,,inactive: 0.148
same,scaled lipid accumulation score,[3],inactive: 0.007
same,scaled lipid accumulation score,[2],inactive: 0.269
CC(C)NCC(O)c1ccc(N)c(C#N)c1 (stereo unspecified) [Cimaterol],scaled lipid accumulation score,library stock concentration: 9.1 mM,inactive: ≤ -0.006
same,scaled lipid accumulation score,[2],inactive: ≤ 0
same,scaled lipid accumulation score,library stock concentration: 22.8 mM,inactive: 0.279
CNCC(O)c1ccc(O)cc1 (stereo unspecified),scaled lipid accumulation score,[2],inactive: ≤ 0
CNCC(O)c1ccc(O)cc1 (stereo unspecified) [Synephrine],scaled lipid accumulation score,[3],inactive: 0.052
same,scaled lipid accumulation score,[2],inactive: ≤ 0
CNCC(O)c1ccc(O)cc1 (stereo unspecified) [(?)-Synephrine],scaled lipid accumulation score,[2],inactive: ≤ 0
CNCC(O)c1ccc(O)cc1 (stereo unspecified) [Synephrine HCl],scaled lipid accumulation score,[3],inactive: ≤ 0
same,scaled lipid accumulation score,[2],inactive: ≤ 0
CCOc1ccccc1-n1c(C(C)N2CCN(C(=O)COc3ccc(Cl)cc3)CC2)nc2ccccc2c1=O (stereo unspecified) [Erastin],scaled lipid accumulation score,[3],inactive: ≤ -0.009
same,scaled lipid accumulation score,[2],inactive: 0.473
C[C@]12CCC(=O)C=C1CC[C@@H]1[C@@H]2CC[C@@]2(C)[C@H]1CC[C@]2(C)O [Methyltestosterone],scaled lipid accumulation score,[2],inactive: 0.073
C=CCN1CC[C@]23c4c5ccc(O)c4O[C@H]2/C(=N/N=C2\CC[C@@]4(O)[C@H]6Cc7ccc(O)c8c7[C@@]4(CCN6CC=C)[C@H]2O8)CC[C@@]3(O)[C@H]1C5 [Naloxonazine 2HCl],scaled lipid accumulation score,[4],inactive: 0.144
CC(C)C[C@H]1C(=O)N2CCC[C@H]2[C@]2(O)O[C@](NC(=O)[C@@H]3C=C4c5cccc6[nH]c(Br)c(c56)C[C@H]4N(C)C3)(C(C)C)C(=O)N12 [Bromocriptine mesylate],scaled lipid accumulation score,[4],inactive: ≤ -0.006
same,scaled lipid accumulation score,[2],inactive: ≤ 0 and inactive: 0.018
CC(C)C[C@H]1C(=O)N2CCC[C@H]2[C@]2(O)O[C@](NC(=O)[C@@H]3C=C4c5cccc6[nH]c(Br)c(c56)C[C@H]4N(C)C3)(C(C)C)C(=O)N12 [Bromocryptine mesylate],scaled lipid accumulation score,,inactive: 0.348
CC(C)C[C@H]1C(=O)N2CCC[C@H]2[C@]2(O)O[C@](NC(=O)[C@@H]3C=C4c5cccc6[nH]c(Br)c(c56)C[C@H]4N(C)C3)(C(C)C)C(=O)N12 [(+)-Bromocriptine methanesulfonate],scaled lipid accumulation score,[2],inactive: 0.732
